# Laboratory results as given in the BET-seq Pho4 binding data (Le et al. 2018).
# This is one part of the list. The energies were worked out here from pooled read counts, against the library average; single values are noisy.
# Biological target: T1, Pho4 (S. cerevisiae) (UniProt P07270)
# T1 sequence: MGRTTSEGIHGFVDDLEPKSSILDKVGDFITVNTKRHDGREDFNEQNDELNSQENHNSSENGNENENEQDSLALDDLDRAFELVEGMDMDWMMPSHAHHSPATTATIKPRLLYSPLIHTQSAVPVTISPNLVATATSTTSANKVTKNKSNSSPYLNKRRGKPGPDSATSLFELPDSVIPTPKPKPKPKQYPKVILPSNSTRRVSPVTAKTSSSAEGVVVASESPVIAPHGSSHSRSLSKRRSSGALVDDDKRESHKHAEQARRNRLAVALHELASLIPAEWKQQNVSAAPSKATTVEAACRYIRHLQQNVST
# Assay: relative binding free energy (BET-seq); higher = weaker binding
# Details: reference: library average
row,Sequence,relative binding free energy
1,TACGGCACGTGGTTGT,-0.23 kcal/mol
2,GTGGGCACGTGTAAAG,0.08 kcal/mol
3,AGGGCCACGTGGATGT,-0.25 kcal/mol
4,TGTTTCACGTGTGCTT,0.3 kcal/mol
5,TAATTCACGTGAATAT,0.34 kcal/mol
6,ATGGTCACGTGTTAGG,0.1 kcal/mol
7,GTGGGCACGTGATGCG,0.03 kcal/mol
8,AGAAGCACGTGTGGTC,-0.02 kcal/mol
9,CGTATCACGTGGGTAT,-0.01 kcal/mol
10,TATGACACGTGAGGGA,0.17 kcal/mol
11,GTCGGCACGTGGTCTG,-0.22 kcal/mol
12,CAGGACACGTGGTGTG,-0.16 kcal/mol
13,TTATCCACGTGGTCTT,0 kcal/mol
14,AGGATCACGTGTCTGG,0.13 kcal/mol
15,AATCACACGTGTGTGG,0.1 kcal/mol
16,GGTGGCACGTGATACT,0.08 kcal/mol
17,TCGTGCACGTGACTGG,0.17 kcal/mol
18,GTTGTCACGTGGCTAC,0.22 kcal/mol
19,GGTTGCACGTGCTTGT,-0.02 kcal/mol
20,TACGGCACGTGAATGG,0.06 kcal/mol
21,ATGGACACGTGGTCTT,-0.11 kcal/mol
22,TTGATCACGTGGACAG,0.24 kcal/mol
23,CTTTCCACGTGGTGGT,-0.03 kcal/mol
24,ATGGTCACGTGGAAGC,0.24 kcal/mol
25,TGGGTCACGTGCCGCT,0.15 kcal/mol

row,Sequence,relative binding free energy
1,GTAGTCACGTGCGAGG,0.13 kcal/mol
2,AATTTCACGTGAGCTG,0.36 kcal/mol
3,TGTGACACGTGAGGAT,0.14 kcal/mol
4,TATCACACGTGTTGGT,0.03 kcal/mol
5,AAGTGCACGTGGGTAG,-0.13 kcal/mol
6,CATTTCACGTGAAGGG,0.44 kcal/mol
7,GAGGGCACGTGCGGTT,-0.09 kcal/mol
8,GTATGCACGTGTCATG,0.03 kcal/mol
9,GGGGACACGTGGGAGA,-0.08 kcal/mol
10,TTACTCACGTGGTTTA,0.11 kcal/mol
11,ATTTACACGTGGTTGG,0.1 kcal/mol
12,GCAGTCACGTGTGGTT,0.2 kcal/mol
13,TTAAACACGTGGTATG,-0.13 kcal/mol
14,AGTAACACGTGCGGTG,-0.04 kcal/mol
15,GGCTCCACGTGGGTGT,0.12 kcal/mol
16,GATTTCACGTGGTCAT,0.35 kcal/mol
17,ATGTTCACGTGGGCGT,0.06 kcal/mol
18,TGGGACACGTGTATAG,0.21 kcal/mol
19,GGATTCACGTGGGCTA,0.28 kcal/mol
20,ACGGGCACGTGTTCGG,-0.21 kcal/mol
21,TTGCACACGTGGTATA,-0.08 kcal/mol
22,GGTAGCACGTGGTCGG,-0.2 kcal/mol
23,CGTGCCACGTGGGCGG,-0.25 kcal/mol
24,CGGTTCACGTGGTCAG,0.23 kcal/mol
25,GAGGCCACGTGAGGGG,0.14 kcal/mol

row,Sequence,relative binding free energy
1,TTGGTCACGTGTCGAA,0.24 kcal/mol
2,GCTAGCACGTGTTTGG,0.01 kcal/mol
3,GGTAACACGTGTGCAT,0.18 kcal/mol
4,CGCGGCACGTGGACGG,-0.07 kcal/mol
5,TTTTTCACGTGGTGCA,0.19 kcal/mol
6,ATGTTCACGTGGGCGA,0 kcal/mol
7,GAGTGCACGTGGAGGA,0.01 kcal/mol
8,ATGTTCACGTGGCACG,0.33 kcal/mol
9,ATTTGCACGTGCTTAT,-0.04 kcal/mol
10,CTTGCCACGTGTTGTT,-0.08 kcal/mol
11,GTGAACACGTGGCATT,-0.01 kcal/mol
12,TGTGTCACGTGATATC,0.35 kcal/mol
13,TGGATCACGTGATGTT,0.24 kcal/mol
14,GCGTACACGTGGGTAT,-0.11 kcal/mol
15,AATGGCACGTGTAGCT,-0.06 kcal/mol
16,CTTTACACGTGTTCGT,0.09 kcal/mol
17,ACGTTCACGTGTGATT,0.26 kcal/mol
18,TGGTCCACGTGCGAGT,0.04 kcal/mol
19,AAGTGCACGTGCGGTT,0 kcal/mol
20,GAAGGCACGTGGAAAG,0.11 kcal/mol
21,TTTTGCACGTGAGGCC,0.14 kcal/mol
22,TTGGACACGTGAATGT,0.35 kcal/mol
23,TTTTGCACGTGAGACT,0.17 kcal/mol
24,GGTGTCACGTGCAGAT,0.04 kcal/mol
25,TGTTTCACGTGTATTA,0.2 kcal/mol

row,Sequence,relative binding free energy
1,GAGGTCACGTGAAAGG,0.44 kcal/mol
2,GTGGTCACGTGTGGAC,0.22 kcal/mol
3,TGGTGCACGTGGTCTT,-0.02 kcal/mol
4,GTTAGCACGTGTGCGC,0.17 kcal/mol
5,TTGAGCACGTGTAATG,-0.01 kcal/mol
6,AATGTCACGTGTGGTC,0.04 kcal/mol
7,CGTGACACGTGTTTTT,0.06 kcal/mol
8,TGGTTCACGTGTGAAT,0.44 kcal/mol
9,ATAAGCACGTGGTAGT,-0.1 kcal/mol
10,TAGATCACGTGGAGTG,0.15 kcal/mol
11,TGTTGCACGTGCGCGT,-0.19 kcal/mol
12,GTGTGCACGTGGACAT,-0.12 kcal/mol
13,GATCTCACGTGGAGTG,0.36 kcal/mol
14,TTCGTCACGTGGTTAG,0.03 kcal/mol
15,TTAGTCACGTGAGGAA,0.32 kcal/mol
16,TGAGGCACGTGACGTA,-0.05 kcal/mol
17,GAGTTCACGTGCGGTA,0.4 kcal/mol
18,AGAGTCACGTGATGGA,0.2 kcal/mol
19,TGAGGCACGTGGGTGC,-0.2 kcal/mol
20,ATATGCACGTGTGTCT,-0.05 kcal/mol
21,ATTGACACGTGCTGGA,-0.03 kcal/mol
22,GGGTGCACGTGTGTAA,0.04 kcal/mol
23,GTGTACACGTGGTCGC,-0.01 kcal/mol
24,AATTTCACGTGATTTA,0.2 kcal/mol
25,GAGTGCACGTGGGATG,0 kcal/mol

row,Sequence,relative binding free energy
1,TTTGGCACGTGCTATG,-0.15 kcal/mol
2,GTGGGCACGTGTGTCG,0.05 kcal/mol
3,AATTTCACGTGGGCTG,0.2 kcal/mol
4,GAGGGCACGTGCTGAT,-0.11 kcal/mol
5,ACGTGCACGTGGTAGA,-0.05 kcal/mol
6,GGTGGCACGTGGTGAC,-0.13 kcal/mol
7,GTAATCACGTGGGTCA,0.06 kcal/mol
8,GGATTCACGTGCTAGG,0.27 kcal/mol
9,CAGTTCACGTGGATTT,0.33 kcal/mol
10,GGATTCACGTGAGTTT,0.43 kcal/mol
11,CTTTGCACGTGACGTT,0.2 kcal/mol
12,TGTACCACGTGGTCGG,-0.26 kcal/mol
13,GGTTACACGTGATGAT,0.21 kcal/mol
14,TTGAGCACGTGATGGG,-0.02 kcal/mol
15,TTGATCACGTGCGGTC,0.12 kcal/mol
16,GGTGACACGTGCGGCG,-0.05 kcal/mol
17,GTTGACACGTGGGGTA,-0.13 kcal/mol
18,GTGGCCACGTGAGAGG,0.12 kcal/mol
19,CTTAACACGTGGCGGG,-0.07 kcal/mol
20,GTGGTCACGTGCTTGG,0.05 kcal/mol
21,TAGAACACGTGAGGGG,0.27 kcal/mol
22,TGAGTCACGTGGGAAG,0.11 kcal/mol
23,TGAGGCACGTGAGTCT,0.04 kcal/mol
24,CTGATCACGTGGTATG,0.06 kcal/mol
25,TGGACCACGTGGCGTT,-0.13 kcal/mol

row,Sequence,relative binding free energy
1,GGTGACACGTGTAGTG,0.07 kcal/mol
2,TATAACACGTGATGGT,0.12 kcal/mol
3,TGATACACGTGCGTTT,0.1 kcal/mol
4,TTGCTCACGTGGGCGG,0.11 kcal/mol
5,TCGTGCACGTGATGTG,0.07 kcal/mol
6,TTAGACACGTGGTTAA,-0.13 kcal/mol
7,CTGGTCACGTGAGTGG,0.25 kcal/mol
8,TAGTTCACGTGTAGCG,0.3 kcal/mol
9,TTAGACACGTGCAGGT,-0.01 kcal/mol
10,AGTGACACGTGTACTT,0.11 kcal/mol
11,TAGAACACGTGAGTGA,0.34 kcal/mol
12,TGTTGCACGTGGAGAC,-0.03 kcal/mol
13,CGTTGCACGTGAGGTT,0.17 kcal/mol
14,GCTTGCACGTGTGGAT,0.05 kcal/mol
15,GACGTCACGTGTTGTA,0.29 kcal/mol
16,GAATTCACGTGTTCTT,0.43 kcal/mol
17,CTCGTCACGTGTGTGT,0.08 kcal/mol
18,AGGTGCACGTGGGTCG,-0.19 kcal/mol
19,ATTTCCACGTGTGGAT,0.07 kcal/mol
20,ACATTCACGTGTGGTA,0.15 kcal/mol
21,GATGGCACGTGTGATC,0.13 kcal/mol
